# Source: PubChem BioAssay AID1345082 (National Center for Advancing Translational Sciences (NCATS), 2018)
# Out of some 94,000 compounds screened, about 4,000 (4.3%) were called active. Inconclusive means that the source gave no clear call. Such entries were picked first, then a sample of the others. Calls come from the whole dose curve; as a rule, active = well fitted inhibition curve with a large enough effect; inconclusive = small, poorly fitted or top-dose-only effect; inactive = no such curve, though single readings can be large or run the other way. Potencies of inconclusive entries are doubtful fits and often do not repeat.
# Assay: Cytotoxic Profiling in NIH 3T3 Cell Line of Diverse Libraries Using Quantitative High-Throughput Screening; note: nearly all actives have a fitted effect of over 55% in size
# Details: NIH 3T3 viability, CellTiter-Glo ATP luminescence, 48-72 h; series mostly up to 96.7 µM
# Summary of the method: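 Cytotoxicity is measured as loss of cellular ATP: NIH 3T3 cells (400/well) are exposed to compound for 48 or 72 hr at 37 °C, then CellTiter-Glo luminescence is imaged after 10 min at room temperature.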
# Potency is the fitted concentration of half-maximal effect; tags give direction and shape of the fitted curve.
row,Structure (SMILES),Potency
1,Cc1ccc(C(=O)COc2cccn3c(=O)c(-c4cc(C)n(-c5ccccc5)n4)c(C)nc23)cc1,"inconclusive: 44.7 µM [inhibitor, partial curve, poor fit]"
2,COCC(=O)N[C@H]1CO[C@H]2[C@@H]1OC[C@@H]2Nc1nccc(-c2cccc(F)c2)n1,"inconclusive: 35.5 µM [inhibitor, partial curve, poor fit]"
3,Cc1cc2cc(-c3c(C)noc3C)nc(-c3ccnn3C)c2o1,"inconclusive: 25.1 µM [inhibitor, full curve, poor fit]"
4,O=C(CCC1CCCC1)N1CCCCCC1CN1CCOCC1 (centres undefined),"inconclusive: 50.1 µM [inhibitor, partial curve, poor fit]"
5,O=C(NCc1ccc(Cl)nc1)c1c[nH]c2cccnc12,"inconclusive: 79.4 µM [inhibitor, partial curve, poor fit]"
6,O[C@@H]1CC(CNCc2ccc(F)cc2)(COc2ccc(C(F)(F)F)cn2)C[C@@H]1O (some centres undefined),"inconclusive: 50.1 µM [inhibitor, partial curve, poor fit]"
7,Cc1ncsc1CN1CCC2(CC1)NCCc1c2[nH]c2ccccc12,"inconclusive: 44.7 µM [inhibitor, partial curve, poor fit]"
8,Cc1ccccc1-n1nc(C)c(CCC(=O)NC2CC2)c1Oc1ccccc1,"inconclusive: 44.7 µM [inhibitor, partial curve, poor fit]"
9,Cn1nccc1C(=O)N1CCC(c2nc(CCOCC3CCCC3)no2)C1 (centres undefined),inactive
10,COc1ccc(-c2nccc3c(=O)cc(N4CCN(C)CC4)oc23)cn1,"inconclusive: 63.1 µM [inhibitor, partial curve, poor fit]"
11,Cc1cccc(OCCc2noc(C3CCCCN3Cc3cccnc3)n2)c1 (centres undefined),"inconclusive: 44.7 µM [inhibitor, partial curve, poor fit]"
12,Cc1nn(-c2ccccc2)c2c1C(C(C)C)N(C1CN([S+](=O)([O-])c3cccs3)C1)C2=O (centres undefined),inactive
13,CS(=O)(=O)N1Cc2ccccc2CC2(CCN(CC3CCNC3)C2)C1 (centres undefined),inactive
14,CC(C)CNc1ccc2c(n1)C(C)(C(=O)NCc1cccnc1)CN(Cc1ccccc1)C2 (centres undefined),"inconclusive: 35.5 µM [inhibitor, partial curve, poor fit]"
15,CCN1C(=O)Cc2cc(C(=O)NCc3ccc(F)cc3)ccc21,"inconclusive: 50.1 µM [inhibitor, single point]"
16,Cc1cnc(C(=O)NC2C[C@H]3CC[C@@H](C2)N3C(=O)CCC2CCCCC2)cn1 (some centres undefined),"inconclusive: 28.2 µM [inhibitor, partial curve]"
17,Cc1noc(C2CC3(CCN(C(=O)C4(c5ccccc5)CC4)CC3)CN2C)n1 (centres undefined),inactive
18,O=C(c1ccc(Cl)cc1)N1CCC(c2n[nH]c(=O)n2-c2ccccc2)CC1,"inconclusive: 44.7 µM [inhibitor, partial curve, poor fit]"
19,CC(=O)N1CCN(C(=O)c2nc3cccnc3n(C3CC3)c2=O)CC1,inactive
20,Cn1c(CN2C[C@H](O)C[C@H]2c2nc(-c3ccc4c(c3)OCO4)no2)nc2ccccc21,"inconclusive: 126 µM [inhibitor, single point]"

row,Structure (SMILES),Potency
1,COCCC(=O)N1C[C@@H](COc2cccnc2)[C@H](c2ccccn2)C1,inactive
2,Cc1nn(-c2ccccc2)c2c1C(C1CC1)N(C1CCN(CC3CCCCC3)CC1)C2=O (centres undefined),inactive
3,Cc1ccccc1C(=O)N1CCC(N2C(=O)c3c(c(C)nn3-c3ccccc3)C2C2CC2)C1 (centres undefined),"inconclusive: 44.7 µM [inhibitor, partial curve, poor fit]"
4,COc1cccc(N2C(=O)NC(=NC3CCCCC3)C23CCCN(Cc2ccsc2)C3)c1 (centres undefined),active: 39.8 µM
5,Cc1cnc(C(=O)N2CCCC2c2nc(CCOc3ccc(F)cc3)no2)cn1 (centres undefined),inactive
6,COc1ccc2[nH]cc(CCNC(=O)c3ccc4c(c3)C(O)CCCCCN4C)c2c1 (centres undefined),"inconclusive: 50.1 µM [inhibitor, partial curve, poor fit]"
7,Cc1noc([C@@H]2CN(S(=O)(=O)c3cccs3)C[C@H]2C(N)=O)n1,inactive
8,Cc1ccc(-c2cccc(CN3CC4CCC(C3)N4c3ccc(C(F)(F)F)cc3)c2)c(C)c1,"inconclusive: 39.8 µM [inhibitor, partial curve, poor fit]"
9,CSc1cccc(NC(=O)Nc2cccc(-c3ccc(N4CCOCC4)nn3)c2)c1,active: 35.5 µM
10,O=C(c1cc2ccccc2[nH]1)N1CCCC(c2nc(CCOCC3CC3)no2)C1 (centres undefined),"inconclusive: 31.6 µM [inhibitor, partial curve, poor fit]"
11,N#Cc1cccnc1-c1ccc(C(=O)N2CCC(NC(=O)c3cccc(Cl)c3)CC2)cc1,"inconclusive: 31.6 µM [inhibitor, full curve, poor fit]"
12,Cc1ccc(-c2cccc(CN3C4CCC3CN(C(C)C)C4)c2)c(C)c1,"inconclusive: 50.1 µM [inhibitor, partial curve, poor fit]"
13,O=C(Nc1nnc(Cc2ccccc2)s1)C1CC(=O)N(c2n[nH]c3cccc(F)c23)C1 (centres undefined),inactive
14,CCOCCCNC(=O)c1nnn2cc(-c3ccccc3)[nH]c(=O)c12,"inconclusive: 50.1 µM [inhibitor, partial curve, poor fit]"
15,Cc1noc(C)c1CN1CCc2ncc(C(=O)Nc3ccccc3)n2CC1,"inconclusive: 100 µM [inhibitor, partial curve, poor fit]"
16,CN(Cc1cccc(C(F)(F)F)c1)[S+](=O)([O-])c1cccc(C(F)(F)F)c1,"inconclusive: 44.7 µM [inhibitor, partial curve, poor fit]"
17,O=C(c1ccc(Cn2cccn2)o1)N1CCOCC(O)(CN2CCCC2)C1 (centres undefined),inactive
18,O=C(NC1CCCN(c2cc(-c3ccccc3)[nH]n2)C1)c1ccc2c(c1)OCO2 (centres undefined),"inconclusive: 50.1 µM [inhibitor, partial curve, poor fit]"
19,COc1ccc(-c2onc(C)c2C(=O)NCCC(c2ccccc2)c2ccccc2)cc1,"inconclusive: 44.7 µM [inhibitor, partial curve, poor fit]"
